In assay [1] the target is full-length DnaA fused to T25 or T18 fragments (B. subtilis) (UniProt P05648). In words: two-hybrid; bacterial two-hybrid with T25 and T18 fusions co-transformed into E. coli BTH101 (ΔcyaA); spotted on LB plates with X-gal and 0.5 mM IPTG; 30°C for 24 hours, then room temperature for 3 days.
Assay [2] concerns the target T1, full-length DnaB fused to T25 or T18 fragments (B. subtilis) (UniProt P07908).
T1 sequence: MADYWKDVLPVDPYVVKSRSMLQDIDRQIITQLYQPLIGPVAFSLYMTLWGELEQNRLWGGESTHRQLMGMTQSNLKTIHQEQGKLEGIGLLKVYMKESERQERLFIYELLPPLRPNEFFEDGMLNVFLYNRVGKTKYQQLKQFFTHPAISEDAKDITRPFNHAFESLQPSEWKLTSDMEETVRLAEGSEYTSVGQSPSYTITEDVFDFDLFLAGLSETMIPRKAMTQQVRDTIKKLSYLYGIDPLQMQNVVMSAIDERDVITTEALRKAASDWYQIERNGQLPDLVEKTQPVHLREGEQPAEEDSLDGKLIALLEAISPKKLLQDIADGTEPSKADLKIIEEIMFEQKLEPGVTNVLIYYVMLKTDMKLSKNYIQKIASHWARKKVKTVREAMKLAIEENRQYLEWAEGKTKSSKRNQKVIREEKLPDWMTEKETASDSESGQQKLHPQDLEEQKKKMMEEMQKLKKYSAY
The description is as above.

Protein sequences, listed by entry. Tags and fused reporters are not part of them.
UniProt P05648: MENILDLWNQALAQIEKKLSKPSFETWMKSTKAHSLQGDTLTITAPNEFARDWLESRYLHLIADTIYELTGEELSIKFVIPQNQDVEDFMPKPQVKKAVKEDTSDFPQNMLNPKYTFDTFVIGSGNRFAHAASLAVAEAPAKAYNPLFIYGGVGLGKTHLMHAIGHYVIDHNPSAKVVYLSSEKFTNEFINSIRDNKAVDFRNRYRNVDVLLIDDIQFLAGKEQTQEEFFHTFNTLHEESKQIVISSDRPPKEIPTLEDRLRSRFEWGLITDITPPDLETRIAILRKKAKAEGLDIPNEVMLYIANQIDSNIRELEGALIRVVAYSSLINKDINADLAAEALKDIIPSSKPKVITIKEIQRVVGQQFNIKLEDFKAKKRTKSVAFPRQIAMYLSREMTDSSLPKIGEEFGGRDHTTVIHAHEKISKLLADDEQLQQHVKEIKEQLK

The target in assay [3] is T2, full-length DnaD fused to T25 or T18 fragments (B. subtilis) (UniProt P39787).
T2 sequence: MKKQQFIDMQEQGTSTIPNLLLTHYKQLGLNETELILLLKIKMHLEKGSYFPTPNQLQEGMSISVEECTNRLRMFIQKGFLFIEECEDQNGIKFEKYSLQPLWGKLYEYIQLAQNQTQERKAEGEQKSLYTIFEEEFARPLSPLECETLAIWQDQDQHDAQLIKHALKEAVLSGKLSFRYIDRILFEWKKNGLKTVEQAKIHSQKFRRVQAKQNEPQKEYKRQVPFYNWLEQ
The assay is described as above.

The target of assay [4] is purified WT CcrZ (B. subtilis), recombinant from E. coli (B. subtilis) (UniProt C0SPC1). Briefly: SEC; S200 column, 20 mM Tris-HCl pH 8.0, 150 mM NaCl, 1 mM DTT; compared with protein standards (15-600 kDa); CcrZ peak at ~68 mL retention, equivalent to a 30 kDa monomer; both purified. (In gel filtration, larger molecules generally elute earlier.)
Assay [5] concerns the target SelenoMet WT CcrZ (B. subtilis) bound to AMP-PNP (B. subtilis) (UniProt C0SPC1). Briefly: crystal structure; SelenoMet CcrZ with AMP-PNP, 2.6 Å, space group P 43 21 2; contact with a symmetry mate in the crystal lattice; both purified.

Results are given in words; binding and its absence hold for the method and conditions named. Some binding calls cover weakened binding; strength is not graded here. For some assays here: Sequences can lack the tags named with a protein.

Experimental findings from article PMC9135335, “Structure and kinase activity of bacterial cell cycle regulator CcrZ” (PLoS Genetics, 2022) are described below.

B1: CcrZ (B. subtilis), full-length, fused to T25 or T18 fragments (protein, UniProt C0SPC1 1-269)
chain: MNIDMNWLGQLLGSDWEIFPAGGATGDAYYAKHNGQQLFLKRNSSPFLAVLSAEGIVPKLVWTKRMENGDVITAQHWMTGRELKPKDMSGRPVAELLRKIHTSKALLDMLKRLGKEPLNPGALLSQLKQAVFAVQQSSPLIQEGIKYLEEHLHEVHFGEKVVCHCDVNHNNWLLSEDNQLYLIDWDGAMIADPAMDLGPLLYHYVEKPAWESWLSMYGIELTESLRLRMAWYVLSETITFIAWHKAKGNDKEFHDAMEELHILMKRIVD
For B1, the binding entry in assay [1] is “no binding”; in assay [2], “binds”; in assay [3] it was “no binding”.

B2: purified WT CcrZ (B. subtilis), recombinant from E. coli (enzyme, UniProt C0SPC1 2-269)
chain: NIDMNWLGQLLGSDWEIFPAGGATGDAYYAKHNGQQLFLKRNSSPFLAVLSAEGIVPKLVWTKRMENGDVITAQHWMTGRELKPKDMSGRPVAELLRKIHTSKALLDMLKRLGKEPLNPGALLSQLKQAVFAVQQSSPLIQEGIKYLEEHLHEVHFGEKVVCHCDVNHNNWLLSEDNQLYLIDWDGAMIADPAMDLGPLLYHYVEKPAWESWLSMYGIELTESLRLRMAWYVLSETITFIAWHKAKGNDKEFHDAMEELHILMKRIVD
B2: in assay [4], the binding result is reported as “no binding”.

B3: SelenoMet WT CcrZ (B. subtilis) bound to AMP-PNP (enzyme, UniProt C0SPC1 2-269)
chain: NIDMNWLGQLLGSDWEIFPAGGATGDAYYAKHNGQQLFLKRNSSPFLAVLSAEGIVPKLVWTKRMENGDVITAQHWMTGRELKPKDMSGRPVAELLRKIHTSKALLDMLKRLGKEPLNPGALLSQLKQAVFAVQQSSPLIQEGIKYLEEHLHEVHFGEKVVCHCDVNHNNWLLSEDNQLYLIDWDGAMIADPAMDLGPLLYHYVEKPAWESWLSMYGIELTESLRLRMAWYVLSETITFIAWHKAKGNDKEFHDAMEELHILMKRIVD
modifications: selenomethionine derivative
Turning to B3, the binding entry in assay [5] was “no binding”.
